# Test results reported in PubChem BioAssay AID686979 (National Center for Advancing Translational Sciences (NCATS), 2013).
# Among all 420,000 compounds or so, about 50,000 (12%) were called active. The inconclusive results got no clear call from the source; some entries with a clear call stand among them for comparison. Calls follow the shape of the dose curve; as a rule, active = well fitted inhibition curve with a large enough effect; inconclusive = small, poorly fitted or top-dose-only effect; inactive = flat fitted curve, though single readings scatter. No potency is given beside an inconclusive call; the fits are too rough.
# Assay: qHTS for Inhibitors of human tyrosyl-DNA phosphodiesterase 1 (TDP1): qHTS in cells in presence of CPT; also: nearly all actives have a fitted effect of over 55% in size
# Conditions: chicken DT40 Tdp1-/-;hTDP1 cells + 20 nM CPT, ATP luminescence, 48 h; activity change, negative = growth inhibition: at 46.2 µM (top of the series) unless noted
# Method in brief: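 Cell growth measured by CellTiter-Glo luminescence after a minimum 48 h, 37 C compound exposure with 20 nM CPT in Tdp1-knockout DT40 cells stably expressing hTDP1, seeded 400/well; qHTS titration format.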
# % is scaled to controls: 0 for no effect and ±100 for the full control effect; potency is read from the fitted curve at half-maximal effect; tags tell the direction and shape of the fitted curve.
SMILES,Potency,"activity change, negative = growth inhibition"
Cc1nnc(SCC(=O)c2ccc(C(C)C)cc2)s1,"inconclusive [inhibitor, single point]",–
Cc1ccc(S(=O)(=O)N2CCc3ccccc3C2)cc1C,–,inactive: -19.1%
CCc1ccc(N(CC)C(=O)c2sc3nc4n(c(=O)c3c2C)CCCC4)cc1,active: 25.9 µM,–
Cc1ccn2cc(C(=O)Nc3ccc4c(c3)OCCO4)nc2c1,–,inactive: -23.7%
Cc1ccc(-c2nn3c(C)nnc3s2)cc1NCc1c(F)cccc1Cl,active: 18.4 µM,–
CCCOc1ccc(C(NC(=O)CC(C)C)NC(=O)CC(C)C)cc1OC,–,inconclusive: -7.37% [inhibitor]
N#Cc1ccccc1NC(=O)CSc1nnc(-c2ccccc2O)n1-c1ccccc1,"inconclusive [inhibitor, partial curve]",–
CCN(CC(=O)NCCc1ccc(S(N)(=O)=O)cc1)Cc1nc2ccccc2c(=O)[nH]1,active: 20.6 µM,–
COc1ccc(OC(=O)C(C)N2C(=O)c3ccccc3C2=O)cc1 (stereo not given),–,inactive: -16.7%
Cc1cc(C)nc(NC(=O)c2cc(-c3ccc(C)s3)nc3ccccc23)c1,"inconclusive [inhibitor, single point]",–
Cn1nnnc1SCCCNCc1ccccc1OCc1ccc(F)cc1,"inconclusive [inhibitor, single point]",–
CS(=O)(=O)Nc1ccc(C(=O)Nc2ccccc2-c2ccccc2)cc1,–,inactive: -20.4%
CC(=O)Nc1cc(-c2cccc(C(=O)NCCO)c2)cn2c(-c3ccc(F)c(Cl)c3)cnc12,active: 29.1 µM,–
Cc1cccc(NS(=O)(=O)c2ccc3c(c2)CCN3C(=O)C2CC2)c1C,active: 20.6 µM,–
NS(=O)(=O)c1cc(-c2nn[nH]n2)c(NCc2cccs2)cc1Cl,–,inactive: 4.86%
CCCCn1c(SCc2ncc(-c3ccccc3)o2)nc2cc(S(N)(=O)=O)ccc21,active: 11.6 µM,–
O=C(Cn1c(=O)ccc2cc(S(=O)(=O)N3CCCC3)ccc21)Nc1ccc(Cl)cc1,"inconclusive [inhibitor, single point]",–
CCC(CO)N=CC1=C(O)C(C(=O)c2ccccc2)CCC1=O (stereo not given),"inconclusive [inhibitor, partial curve, poor fit]",–
C[C@H](CO)N1C[C@H](C)[C@@H](CN(C)S(=O)(=O)c2ccccc2)Oc2ccc(NC(=O)NC3CCCCC3)cc2C1=O,"inconclusive [inhibitor, single point]",–
CCOc1ccc(CNC(=O)CCS(=O)(=O)Cc2cccc(Cl)c2)cc1OC,–,inactive: 0.697%
O=S(=O)(c1cnc(Cl)c(Br)c1)N1CCc2ccccc21,active: 16.4 µM,–
COc1cc2ccccc2cc1C(=O)NCC(c1cccs1)N(C)C (stereo not given),"inconclusive [inhibitor, single point]",–
O=C(C[n+]1ccccc1)N/N=C/c1ccco1,–,inactive: 6.8%
CC(Cc1cccs1)NC(=O)c1cccc(Cl)c1 (stereo not given),"inconclusive [inhibitor, single point]",–
CCN(CC)Cc1c(O)c(Cl)cc2c3c(c(=O)oc12)CCCC3,"inconclusive [inhibitor, single point]",–

SMILES,Potency,"activity change, negative = growth inhibition"
Cc1ccc(S(=O)(=O)NCc2ccccc2Br)cc1,"inconclusive [inhibitor, single point]",–
Cc1ccc(Cl)cc1NC(=O)CSCc1cnn(-c2ccccc2)c1-n1cccc1,active: 16.4 µM,–
Cc1ncoc1C(=O)Nc1ccc(Oc2ccccc2)cc1,–,inactive: -21.3%
COc1ccc(NC(=O)c2c(NC(=O)c3ccncc3)sc3c2CCC(C(C)(C)C)C3)cc1 (stereo not given),"inconclusive [inhibitor, single point]",–
OCC1(CCOc2ccccc2)CCN(Cc2cc(Cl)ccc2O)CC1,"inconclusive [inhibitor, single point]",–
FC(F)Oc1ccc(/C=N/n2c(Cc3ccc(Br)cc3)n[nH]c2=S)cc1,"inconclusive [inhibitor, single point]",–
Cc1nnc(SCc2nnc(-c3ccc(Cl)cc3)o2)n1-c1ccccc1,"inconclusive [inhibitor, single point]",–
CCOc1ccc2nc(NC(=O)C(CCSC)NS(=O)(=O)c3cccs3)sc2c1 (stereo not given),"inconclusive [inhibitor, single point]",–
Cc1noc(C)c1-c1nccc(N2CCNCC2)n1,–,inactive: -4.49%
C/C(=N\NC(=O)C(=O)Nc1ccc(C)cc1)c1ccncc1,"inconclusive [inhibitor, partial curve, poor fit]",–
CCOc1ccc(N(CC(=O)Nc2ccccc2CC)S(=O)(=O)c2c(C)noc2C)cc1,active: 4.61 µM,–
NC(=O)c1ccccc1NC(=O)CN1CCN(Cc2ccc(Cl)cc2Cl)CC1,"inconclusive [inhibitor, partial curve]",–
O=C(C[C@H]1C[C@H](C(=O)N2CCCCC2)[C@@]2(CCc3ccccc3)c3[nH]c4cc(-c5ccco5)ccc4c3CCN2C1=O)NCCC1=CCCCC1,"inconclusive [inhibitor, single point]",–
COc1cccc(NC(=O)C(Sc2nnc(-c3ccncc3)n2-c2ccc(Cl)cc2)c2ccccc2)c1 (stereo not given),active: 16.4 µM,–
CCC(C)[C@@H]1NC(=O)N(CCCN2CCCC2=O)C1=O (stereo not given in full),–,inactive: 27.1%
COC(=O)[C@@]1(Cc2ccc(F)cc2)[C@H]2c3cc(C(=O)N(C)C)n(Cc4ccsc4Br)c3C[C@H]2CN1C(=O)c1ccccc1,"inconclusive [inhibitor, single point]",–
CC(=O)CCN1CCOCC1,"inconclusive [inhibitor, single point]",–
N#Cc1ccc(C(=O)N2CCN(S(=O)(=O)c3ccc(Cl)s3)CC2)cc1,"inconclusive [inhibitor, partial curve]",–
COc1cc(NC(=O)C(Cc2ccccc2)NS(=O)(=O)c2cccc3nsnc23)cc(OC)c1 (stereo not given),active: 16.4 µM,–
C/C(=N/NC(=O)C1CCCN1C(=O)c1ccc([N+](=O)[O-])cc1)c1ccc(Br)cc1 (stereo not given),"inconclusive [inhibitor, partial curve]",–
Cc1cccc(NC(=O)CSc2nc3ccccc3nc2N2CCCCC2)c1C,active: 23.1 µM,–
CCN(CC)C(=S)NC(=O)Cc1ccccc1,–,inactive: 4.25%
CC1(C)C(N(O)C(=O)Nc2ccc(Cl)cc2)N(c2ccc(Cl)cc2)C(=O)N1CC(=O)NN (stereo not given),–,inactive: 2.51%
Cc1ccc2cc(CCNC(=O)C(C)(C)C)c(=O)[nH]c2c1,–,inactive: -19.1%
O=c1[nH]c(CN2CCN(c3ccccc3O)CC2)nc2scc(-c3ccccc3Cl)c12,"inconclusive [inhibitor, single point]",–

SMILES,Potency,"activity change, negative = growth inhibition"
COc1ncc2nc(-c3ccc(F)cc3)c(=O)n(C)c2n1,–,inactive: -8.81%
C=CCOc1ccc(C2C(C#N)=C(N)N(Nc3ccccc3)C3=C2C(=O)CCC3)cc1OC (stereo not given),"inconclusive [inhibitor, single point]",–
Cc1ccc(-c2nn(-c3cccc(F)c3)cc2CN2CCN(c3ccccn3)CC2)o1,"inconclusive [inhibitor, single point]",–
COc1ccc(-n2c(CNC(=O)c3cccc(OC)c3OC)nnc2SC)cc1,–,inactive: -1.34% [at 9.04 µM]
O=C(Cn1ccn(-c2ccc(F)c(F)c2)c(=O)c1=O)NCCc1ccccc1,"inconclusive [inhibitor, single point]",–
O=C(CCCN1C(=O)c2cccnc2C1=O)N1CC(=O)N(CCc2ccccc2)C(=O)C1,–,inactive: -17%
Cc1ccc2c(C)c(C(=O)N(C)C(C)c3ccon3)oc2c1C (stereo not given),"inconclusive [inhibitor, single point]",–
NCCCNC(=S)NCCCN(Cc1ccc(Cl)cc1)c1ccc(Br)cn1,active: 15.8 µM,–
CCCCNc1nc(Oc2ccc(=O)n(C)n2)nc(N2CCOCC2)n1,–,inactive: -12.7%
CC(C)=CCOc1ccc([C@@H]2COc3c(ccc4c3C=CC(C)(C)O4)C2)c(O)c1,active: 16.4 µM,–
Cc1nnc(NC(=O)C2CCN(C(=O)c3ccsc3)CC2)s1,–,inactive: -8.75%
CCN1CCN(c2nc3sc4c(c3c3ncnn23)CC(C)CC4)CC1 (stereo not given),"inconclusive [inhibitor, single point]",–
O=C1Nc2ccc(Cl)cc2/C1=C/C1CC=CCC1 (stereo not given),"inconclusive [inhibitor, single point]",–
O=C(Nc1ccc(N2CCOCC2)c(S(=O)(=O)Nc2ccccc2Cl)c1)c1ccc(F)cc1,"inconclusive [inhibitor, single point]",–
CC(=O)Oc1cccc(N2C(=O)c3cccc4c([N+](=O)[O-])ccc(c34)C2=O)c1,active: 2.31 µM,–
O=C(C1CCN(Cc2nc(Cc3cccc(F)c3)no2)CC1)N1CCOCC1,–,inactive: 20%
CC(CC(=O)NC1CCCCC1)S(=O)(=O)c1ccc2c(c1)NC(=O)CO2 (stereo not given),–,inactive: -9.63%
Cc1cc(C)cc(NC(=O)c2cc(S(=O)(=O)N3CCC(C)CC3)cn2C)c1,–,inactive: -13.9%
CC(OC(=O)c1ccccn1)C(=O)Nc1nc(-c2ccc(F)c(F)c2)cs1 (stereo not given),active: 25.9 µM,–
S=C(c1ccc(OCc2ccccc2)cc1)N1CCCC1,active: 18.4 µM,–
CN(C(=O)Cc1c(C(=O)O)n(C)c2ccccc12)c1ccc(F)cc1,–,inactive: 4.9%
CC(=O)/C(C#N)=C1\NC(=O)C(Cc2ccc(C)c(Cl)c2)S1 (stereo not given),active: 10.3 µM,–
CC(C)(C)N=Cc1c(O)ccc2oc3c(c12)CCCC3,–,inactive: -12.4%
Cc1csc(Nc2nc(N)c(C(=O)Nc3cc(Cl)ccc3F)o2)n1,"inconclusive [inhibitor, single point]",–
O=C(C1CCCCC1)N1C[C@@H](n2cc(-c3ccc(F)cc3)nn2)[C@H](O)C[C@@H]1c1ccccc1,"inconclusive [inhibitor, single point]",–
